Test results: the supplement of paper PMC11417369
± gives the standard deviation of the averaged measurements. Some of the results follow.

Test system: PfAP2-G AP2 domain (GST-tagged)
Assay: gcPBM binding intensity (ln(normalized median fluorescence intensity)); higher = stronger DNA binding
Method in brief: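 GST-tagged P. falciparum DNA-binding domains produced in E. coli were incubated for 1 h on an Agilent 4 × 180k array of primer-extended double-stranded 36-bp intergenic genomic probes with negative controls. Binding intensity is the highest Masliner-normalised natural-log median intensity across replicate spots of either probe orientation, with bound protein detected by Alexa488 anti-GST antibody at 488 nm.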

Sequence | gcPBM binding intensity (ln)
ACATTGCACCCGTGCACACATAGAAAAATAATTCTT [CACACA_site409] | 10.5 ± 0.32
GTAGTCCAAAAAAAGCGTACACAGAAAAAAAAAAAA [XGTACX_site4273] | 11.6 ± 1
ATAACAAAAATCCTTGTGCACTATTTTAATAGAGTC | 10.3 ± 0.31
AAAAAGTAAAAGAAAGCACACACACCGGTATATATG [CACACA_site9281] | 9.995 ± 0.021
ATATAATTTATGTGCACACACTCCTATTTTTAGCTT [CACACA_site50] | 10.6 ± 0.28
AAAAAAAATTTTATCTGTACACATTTTTTTCTTTTT [XGTACX_site4229] | 11.6 ± 0.74
CATGCCTTTAAAAAGGTGCAAACATTTTCACAAACA | 10.2 ± 0.22
TAATATATATGTATGGCACACACGGATAAATATATA [CACACA_site930] | 10.21 ± 0.092
AAAAAAAATATGAAAACACACATATATAAATAAATA [CACACA_site113] | 9.64 ± 0.18
TCTTTTTTAAATAAAAGTACAAAAAAAAATAAAAAA [XGTACX_site2670] | 11.4 ± 0.87
AACAAAATAAGACACACACACAAATGTACCTATATA [CACACA_site7189] | 11 ± 0.57
ATAAATGAGCCATATTAAATCCGTTACACGGGTGTG [CACACA_negctrl_site1368] | 10
TTATCATATGTATGCATACACACAAAAAATTATATA [CACACA_site397] | 10 ± 0.26
CAAACAAATATATGTTGTACTTATTATATATACATA [XGTACX_site2998] | 11.3 ± 0.78
ATGTAATTCTTTTACTTTTTTTTTTTTTTTTTTTTT [CACACA_negctrl_site979] | 10.7 ± 0.4
TTCTTTTAAATTAGCTGTACGGTTTTCTACATGCAT [XGTACX_site356] | 11.1 ± 0.52
AACGGGTAATGCACAAAAAAAAAAAAATAAAATAAA [TGCATGCA_negctrl_site474] | 10.1 ± 0.48
AAATTATTTTGTTATCATTATATATAGATTGAATAT [XGTACX_negctrl_site165] | 9.68 ± 0.057
AGAATAAAAAGGAACACACACACACGCATATAAATA [CACACA_site7659] | 10.24 ± 0.021
TTTATTTAATTCATTGCATGTAATTTTTGTGTCCAC [TGCATGCA_site677] | 11.1 ± 0.91
TTTTATGATAATTTTGCACACACTTAGGAAAAATTA [CACACA_site1556] | 10.2 ± 0.23
TTAAAAAAAAATGGCACACATTTTAATTTTATGTTT [CACACA_site5035] | 10.3 ± 0.36
ATTTGTAATTATTAAACACACACAAAATATATATAA [CACACA_site8804] | 10.2 ± 0.16

Sequence | gcPBM binding intensity (ln)
TTATTTTTTCTTTTTTTTCTTACCACAAAAATGGAT [CACACA_negctrl_site362] | 10.1 ± 0.13
ATTTATTTATATAATACACACAAATATCTTAATGAA [CACACA_site6064] | 9.88 ± 0.16
ATTTTTTCTAATGGGTGTACTGAAACGTATTTTATT [XGTACX_site6573] | 11.4 ± 0.98
GAATATAAACATATTACACACATCTATATGTACTTT [CACACA_site8582] | 10.7 ± 0.65
CAAAACAAAGTTGCCGCACACAGATACGCACCCAAG [CACACA_site3455] | 10.6 ± 0.4
TTGTGATTATATAATCGTACATAATTTTAATCACAC [XGTACX_site398] | 11 ± 0.74
AAAAAAAAAAAAAACACACACATATCTATAATATAT [CACACA_site7481] | 10 ± 0.13
TTCAAGATTTATTATACACACATATTAATATATATA [CACACA_site573] | 9.98 ± 0.35
AAAATACACCAACACACACACATATATATATATATT [CACACA_site4149] | 10.2 ± 0.14
GTAATATTATAATATACACACATAGAATATAAATAT [CACACA_site6333] | 10.04 ± 0.078
TTATAAAAAATTTTAGTGCATATATGATTTATATAT [GTGCAC_site9831] | 9.795 ± 0.035
TAATATGTATTTACAAGTACTAACAAAATATTAAAA [XGTACX_site3379] | 11 ± 0.71
TACAAAAATAAATGTTGTACTATTATTTATTTCGAT [XGTACX_site1048] | 11.2 ± 0.7
GGTTCATATATTAACACACACATACATATTATATAT [CACACA_site2937] | 10.1 ± 0.078
TGAGAGAGAAACGTAGTGCATAAAATCAAATTTAGA [GTGCAC_site9737] | 10.02 ± 0.099
AATAATCATAGTTCTACACACCTATATTGCAAAAAA [CACACA_site867] | 10.2 ± 0.24
CCATATCTTTTTTGCACACACTACAATAAAACAAAA [CACACA_site4995] | 10.4 ± 0.4
TTAAAGATATACAAAAGTACTTTTTTTTTCGTCATT [XGTACX_site384] | 11.1 ± 0.54
TTCATTAAATAGAACAAAATAATAATATAACAACAA [GTGCAC_negctrl_site116] | 9.94 ± 0.18
TGATACTTATGATAAATACACACTTGAAATTAAGGA [CACACA_site1152] | 10.4 ± 0.29
TTTTTTAGTTTTTAGTGTACATAAATAAATAAATAA [XGTACX_site2843] | 11.5 ± 0.69
TTAAAAAGAAAGTTCACACACATATAGATGACGGAA [CACACA_site7268] | 10.1 ± 0.092
